# According to the RNAGym collection of RNA variant scans (doi:10.7554/elife.90254):
# Read counts are not given, so values of variants with three or more changes are uncertain.
# B1: LINE1-mini (parent)
# chain: GGCAGAGCUCAACACAGCGUGGCAAAGUGGCUGUGGCUAGACUGCC
# Variants of: B1
# Experiment: self-cleavage, relative activity (ratio to wild type); higher = more cleavage; in vitro, sequencing; the parent is a self-cleaving ribozyme
row,Variant,self-cleavage
1,G33A G36C C45U,0.03
2,C31A U43C G44U,0.03
3,U34A A41U G44C,0.05
4,C31G U38A C42A,0.01
5,C31G G33U C42A G44C C46A,0.03
6,C31G G36A C45G,0.23
7,G30U C37A A39C,0.02
8,G33U G40A C46G,0.28
9,U34G G35A C46U,0.05
10,G35C C42A C45U,0.01
11,G33A G40U C46G,0.06
12,C31A G33U U34C C37G,0.02
13,C31G U32G G33U U43C,0
14,U32G C37A A41G,0.01
15,C31A G44A C46U,0.04
16,G30C U32A U34G G36A,0.03
17,G35C A39G A41U G44U,0.01
18,U34G G35U C42A U43G C46U,0
19,U32G A39C G44C C46A,0.03
20,U32A G44A C45G,0.03
21,G35A A41U U43A,0.04
22,G33C C37A U38C,0.03
23,G35C C37G U38C,0
24,G35A G36A U38A,0.05

row,Variant,self-cleavage
1,C31U U34G G44U,0.01
2,G30A U32G C37A G40A U43G,0.05
3,C31A A41C U43A,0.02
4,U32A U43A G44U,0.04
5,G33A U34A A41C,0.03
6,G33U U38G U43C,0.01
7,G35U U38C G44C C45A C46G,0.07
8,C31U C37A U38G,0.02
9,C31G A39C G40U,0.01
10,G30A G40U U43G,0.07
11,G35A G40U U43G,0.01
12,C31U C42U C46U,0.01
13,U34C C42G U43C,0.1
14,U32A G33U G35U C37U,0.07
15,G30C G36U G40C,0.07
16,U32G G35C C37A,0.04
17,G30A U32C C46G,0.07
18,U32A C37A A39U,0.04
19,U34G G40C C46U,0.01
20,C31G U32A C45U,0.04
21,C31A G33U U38G C42G,0.08
22,U32A U38G C42U,0
23,G35U A41C C45A,0.01
24,U32A G36A C46U,0.16

row,Variant,self-cleavage
1,C31A G33U C42U,0.02
2,G33C U34G C42U,0.02
3,U32G U34A A39G C45A,0.01
4,C31U U34A U43A,0.01
5,G33A A39U U43G,0.02
6,U32A U34C C42U,0.05
7,G33A G36U C37A U43C,0.02
8,G33A U34C C42G,0.07
9,G35C G40U C46U,0.02
10,G30U U38C U43G,0.49
11,G33A C42G U43C,0.02
12,G30U G36U G40C,0.23
13,C31A U38G A39G,0.15
14,U32C G33C A39C,0.07
15,G30C A39C U43C,0.07
16,C31A G33A G44A,0.07
17,G33U U43A G44A,0.08
18,G30U G40A C45U C46U,0.05
19,C31U G36U U38G,0.02
20,G30U A41C C42G,0.03
21,G30C U38A C42A C45G,0
22,G33U U38G G40U,0.02
23,G30U U38G A39U,0.06
24,U32C C37A G40U C46U,0.33

row,Variant,self-cleavage
1,U34G G40U A41G,0.04
2,U34G G44C C45G,0.01
3,C31G A39U C46A,0.02
4,U32A G36C U43A G44A,0.01
5,U32G U34C C42G,0.1
6,G30U G35C G36C,0.03
7,C31A C37U C42U C46G,0.01
8,U32G G33C G35C,0.06
9,G33C C42A C46G,0
10,G33U G40U C45U,0.07
11,G30C C37G G40A,0.09
12,G33A G35U C46G,0.02
13,G35U C37A C42U,0.07
14,C31A A39G A41U,0.02
15,G30U C31U C46A,0.01
16,U32A G40A C45U,0.29
17,U32G C42A U43G,0.03
18,U32G G40C C42U G44U,0.04
19,G33U U38G C42A,0.08
20,G33U A41G C42A C46A,0.03
21,C31A G40C C46U,0.02
22,G30U U34A C37G,0.01
23,U32G G35U C42A,0.12
24,C31G G40U C42U,0.04

row,Variant,self-cleavage
1,G35U A39U A41U C46A,0.1
2,U32A G35U G36C,0.04
3,C31G U32A G36A,0.05
4,U32A U34A C45U,0.02
5,G30C G33A U38G,0.03
6,G33U C42A G44U C46A,0.05
7,G35C C37G U43C G44U,0.04
8,G30C A39U U43G,0.01
9,C31U A39G U43C,0.01
10,G30A U43A C46G,0.04
11,G33A G36U A39C,0.02
12,C31A U32C G33U U34C C42U U43G,0.02
13,U34A U38A G44C,0.01
14,C31U G33U C37A,0.12
15,C31G C37A C46G,0.03
16,U32C U34C C37A G40U,0.06
17,C31G G33A G35U,0.03
18,G33A G36A A41C,0.04
19,G30U U43G C46G,0.06
20,G30U U34G C45G,0.03
21,G30C U32G A39C,0.08
22,U32G A39U G40C,0.02
23,G33U G36C A39C,0.01
24,U32G G33A G44C C45G,0.05

row,Variant,self-cleavage
1,G30C G36C G44C,0.01
2,G30U A39U A41C,0.05
3,U34C U38C C46G,0.03
4,C31G G33C U38G,0.02
5,C31U U38G C45G,0.05
6,C31A G33U U34A,0.05
7,G30C C31A G36C C45U,0.18
8,G30C C31G C46U,0.15
9,C31U U32G U43A C46U,0.07
10,G33A U34A C42U,0.07
11,G30C G35C A39C,0.14
12,G30C G40U C42G U43A,0
13,G30A U38A C46G,0.73
14,C31G G35C U38A,0.03
15,U34C G35C C45A,0.01
16,G33U G36U U38C,0.02
17,G30U U34G G40U,0
18,U32A G35C G36C G40A G44A,0.03
19,C31U G33A A41C,0.03
20,C31A G36A G40A U43G,0.06
21,G30C G35A C42G,0.05
22,G30C A39U A41U C42U,0.04
23,G30U G40A U43G,0.12
24,C31A U38G G40U C46A,0.02

row,Variant,self-cleavage
1,G35U C37A C46U,0.05
2,G35C U38A A41U,0.04
3,U34G G35A C45G,0.05
4,U34C U38A A41C C46A,0.01
5,G30A U34G A41U,0.05
6,C31A C42A C45A,0.03
7,U34G C37A A39G,0.01
8,C31U A41U G44C,0.02
9,G30C C31G A41C G44U,0.06
10,U34A U38A A41G,0.04
11,C31U G33C U38C,0
12,G30U U32G U34C C46U,0.09
13,C31U U32G G36A,0
14,G30U G36U A39U,0.07
15,G33A A41G C42A,0.06
16,C31G G36U G40A,0.02
17,G30C C42G C46A,0.13
18,G30U U38A A41C C42G,0.01
19,G30U G40U C42G,0.02
20,C31G A39U A41U,0.02
21,C31G G33U U34A,0.05
22,C31G A39G C45A,0.04
23,U32A G35U G40U,0.01
